8 molecules from PMC8600046 can be followed below.

Chains of the proteins cited; added tags and fusions are not shown.
UniProt P33897: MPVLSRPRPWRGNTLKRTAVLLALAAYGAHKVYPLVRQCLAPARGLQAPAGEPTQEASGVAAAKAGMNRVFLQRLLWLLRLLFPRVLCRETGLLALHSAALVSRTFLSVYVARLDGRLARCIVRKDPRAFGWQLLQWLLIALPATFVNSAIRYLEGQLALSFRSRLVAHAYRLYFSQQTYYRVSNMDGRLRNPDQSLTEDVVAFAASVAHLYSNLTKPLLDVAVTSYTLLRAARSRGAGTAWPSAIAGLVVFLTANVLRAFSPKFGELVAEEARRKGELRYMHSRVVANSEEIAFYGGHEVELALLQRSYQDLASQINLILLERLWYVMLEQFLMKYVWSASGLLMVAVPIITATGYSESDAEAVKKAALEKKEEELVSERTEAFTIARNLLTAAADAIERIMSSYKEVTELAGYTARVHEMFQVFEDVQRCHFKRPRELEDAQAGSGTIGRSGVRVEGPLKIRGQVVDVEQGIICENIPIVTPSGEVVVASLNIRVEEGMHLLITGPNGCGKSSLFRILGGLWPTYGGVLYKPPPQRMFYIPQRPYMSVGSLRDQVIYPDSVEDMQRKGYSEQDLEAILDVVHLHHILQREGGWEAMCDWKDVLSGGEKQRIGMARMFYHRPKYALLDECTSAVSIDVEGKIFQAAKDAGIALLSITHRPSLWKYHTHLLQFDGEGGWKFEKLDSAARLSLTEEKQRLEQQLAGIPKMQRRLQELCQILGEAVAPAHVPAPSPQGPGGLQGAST
UniProt Q9Y5Y5: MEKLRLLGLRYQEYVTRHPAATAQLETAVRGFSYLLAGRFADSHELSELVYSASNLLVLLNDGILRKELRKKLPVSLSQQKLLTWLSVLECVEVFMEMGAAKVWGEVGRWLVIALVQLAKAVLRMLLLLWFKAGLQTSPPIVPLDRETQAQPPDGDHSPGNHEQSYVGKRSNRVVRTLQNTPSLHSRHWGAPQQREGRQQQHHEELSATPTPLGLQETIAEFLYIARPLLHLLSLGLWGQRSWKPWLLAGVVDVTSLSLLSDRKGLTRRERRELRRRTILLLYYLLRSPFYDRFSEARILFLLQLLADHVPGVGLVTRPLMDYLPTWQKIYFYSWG

Numbering of substitutions follows the chain as printed. Results are given in words; binding and its absence hold for the method and conditions named. In cells and extracts the contact can be indirect. Some binding calls cover weakened binding; strength is not graded here.

First the molecules themselves.
T1: ABCD3 (UniProt P28288)
T1 sequence: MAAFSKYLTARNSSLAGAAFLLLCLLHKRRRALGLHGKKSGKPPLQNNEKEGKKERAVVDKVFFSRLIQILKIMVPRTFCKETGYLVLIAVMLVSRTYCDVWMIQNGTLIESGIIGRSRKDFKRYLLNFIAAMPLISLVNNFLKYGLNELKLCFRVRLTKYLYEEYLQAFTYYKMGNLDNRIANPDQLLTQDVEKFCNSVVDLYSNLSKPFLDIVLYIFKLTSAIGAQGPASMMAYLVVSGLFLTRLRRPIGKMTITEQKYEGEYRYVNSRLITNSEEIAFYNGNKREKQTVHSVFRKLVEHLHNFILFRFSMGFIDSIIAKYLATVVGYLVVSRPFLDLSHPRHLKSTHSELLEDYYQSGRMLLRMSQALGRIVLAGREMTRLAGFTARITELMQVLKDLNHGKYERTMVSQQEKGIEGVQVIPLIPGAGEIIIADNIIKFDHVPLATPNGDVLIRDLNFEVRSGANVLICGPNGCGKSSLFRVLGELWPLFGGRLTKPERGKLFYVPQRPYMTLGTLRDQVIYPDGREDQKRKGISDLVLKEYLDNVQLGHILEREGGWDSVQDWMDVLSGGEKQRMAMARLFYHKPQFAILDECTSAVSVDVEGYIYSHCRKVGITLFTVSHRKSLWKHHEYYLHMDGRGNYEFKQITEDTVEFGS

T2: FAR1 (UniProt Q8WVX9)
T2 sequence: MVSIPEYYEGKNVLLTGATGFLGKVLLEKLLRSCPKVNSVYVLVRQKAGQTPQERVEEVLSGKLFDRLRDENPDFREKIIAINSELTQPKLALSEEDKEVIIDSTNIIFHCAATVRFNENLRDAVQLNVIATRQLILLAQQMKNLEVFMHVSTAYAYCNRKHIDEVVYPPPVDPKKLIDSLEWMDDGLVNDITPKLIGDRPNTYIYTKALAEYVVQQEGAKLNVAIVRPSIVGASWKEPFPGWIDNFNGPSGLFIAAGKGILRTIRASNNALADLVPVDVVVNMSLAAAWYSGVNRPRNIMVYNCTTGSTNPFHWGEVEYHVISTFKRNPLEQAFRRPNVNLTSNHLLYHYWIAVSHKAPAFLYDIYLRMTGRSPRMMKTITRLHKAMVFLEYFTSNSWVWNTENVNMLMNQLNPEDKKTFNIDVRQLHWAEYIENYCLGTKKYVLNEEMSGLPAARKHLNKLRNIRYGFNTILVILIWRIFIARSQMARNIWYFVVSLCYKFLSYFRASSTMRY

T3: peroxin PEX6 (UniProt Q13608)
T3 sequence: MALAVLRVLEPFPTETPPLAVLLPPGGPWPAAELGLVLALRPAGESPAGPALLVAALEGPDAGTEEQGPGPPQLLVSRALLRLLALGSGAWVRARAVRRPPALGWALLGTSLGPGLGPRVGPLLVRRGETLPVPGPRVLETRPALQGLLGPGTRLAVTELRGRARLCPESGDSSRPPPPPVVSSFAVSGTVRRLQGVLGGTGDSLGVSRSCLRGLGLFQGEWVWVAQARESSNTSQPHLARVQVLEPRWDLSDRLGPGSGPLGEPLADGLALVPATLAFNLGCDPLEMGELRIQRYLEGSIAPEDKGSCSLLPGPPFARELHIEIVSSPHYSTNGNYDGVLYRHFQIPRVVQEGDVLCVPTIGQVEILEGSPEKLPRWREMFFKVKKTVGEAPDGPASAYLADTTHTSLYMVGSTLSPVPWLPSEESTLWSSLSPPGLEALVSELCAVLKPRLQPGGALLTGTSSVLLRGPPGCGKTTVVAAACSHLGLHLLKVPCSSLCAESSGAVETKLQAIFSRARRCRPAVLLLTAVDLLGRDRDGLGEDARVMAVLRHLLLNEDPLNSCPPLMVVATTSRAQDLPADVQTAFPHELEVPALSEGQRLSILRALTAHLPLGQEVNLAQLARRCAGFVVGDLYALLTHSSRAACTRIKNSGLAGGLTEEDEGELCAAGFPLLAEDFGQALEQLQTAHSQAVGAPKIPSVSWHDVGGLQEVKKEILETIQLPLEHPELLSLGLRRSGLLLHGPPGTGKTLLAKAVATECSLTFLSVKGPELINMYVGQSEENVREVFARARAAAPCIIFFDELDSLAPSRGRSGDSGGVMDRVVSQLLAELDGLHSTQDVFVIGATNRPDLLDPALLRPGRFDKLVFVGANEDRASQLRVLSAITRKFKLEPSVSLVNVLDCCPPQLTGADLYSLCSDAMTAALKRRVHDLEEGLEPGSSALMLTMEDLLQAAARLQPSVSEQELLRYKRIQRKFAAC

B1: peroxisome biogenesis factor 26 (PEX26) wild-type (protein, UniProt Q7Z412-1 1-305)
chain: MKSDSSTSAAPLRGLGGPLRSSEPVRAVPARAPAVDLLEEAADLLVVHLDFRAALETCERAWQSLANHAVAEEPAGTSLEVKCSLCVVGIQALAEMDRWQEVLSWVLQYYQVPEKLPPKVLELCILLYSKMQEPGAVLDVVGAWLQDPANQNLPEYGALAEFHVQRVLLPLGCLSEAEELVVGSAAFGEERRLDVLQAIHTARQQQKQEHSGSEEAQKPNLEGSVSHKFLSLPMLVRQLWDSAVSHFFSLPFKKSLLAALILCLLVVRFDPASPSSLHFLYKLAQLFRWIRKAAFSRLYQLRIRD
B2: PEX26 p.Pro117Leu (protein, UniProt Q7Z412-1 1-305)
chain: B1 chain with P117L
B3: PEX26 p.Leu45Pro (protein, UniProt Q7Z412-1 1-305)
chain: B1 chain with L45P
B4: PEX26 p.Pro118Arg (protein, UniProt Q7Z412-1 1-305)
chain: B1 chain with P118R
B5: PEX26 p.Arg98Trp (protein, UniProt Q7Z412-1 1-305)
chain: B1 chain with R98W
B6: PEX26 p.Gly89Arg (protein, UniProt Q7Z412-1 1-305)
chain: B1 chain with G89R
B7: PEX26 p.Leu44Pro (protein, UniProt Q7Z412-1 1-305)
chain: B1 chain with L44P
B8: PEX26 p.Leu153Val (protein, UniProt Q7Z412-1 1-305)
chain: B1 chain with L153V

The first assay addresses ABCD1 (UniProt P33897). Put plainly: FRET or BRET; BRET in living HEK293 cells co-transfected with Rluc (donor) and YFP (acceptor) fusions, acceptor to donor ratio 3:1; read 48 h later with coelenterazine 30 μM; all eight combinations of N- or C-terminal fusions tested in duplicates; interaction assumed if at least one combination gave a BRET ratio above the threshold of 0.094. (In BRET a luciferase serves as donor, and the signal depends on an acceptor being close.)
For B1, the binding result is “binds”.

Regarding B2, the binding result was “no binding”.

For the molecule B3, the binding entry was “binds”.

As for B4, the binding entry is “no binding”.

For the molecule B5, the binding entry is “no binding”.

Take B6: the binding entry is listed as “no binding”.

For B7, the binding entry is “binds”.

With B8, the binding result was “binds”.

The next assay addresses T1, ABCD3. The description is as above.
Regarding B1, the binding entry is “binds”.

Take B2: the binding entry is reported as “no binding”.

Turning to B3, the binding entry was “no binding”.

Regarding B4, the binding result was “no binding”.

With B5, the binding result is “no binding”.

For B6, the binding result was “no binding”.

Consider B7, for which the binding entry is on record as “no binding”.

As for B8, the binding entry is reported as “no binding”.

The next assay has as its target T2, FAR1. The assay is described as above.
In the case of B1, the binding entry is given as “binds”.

With B2, the binding entry is “no binding”.

For B3, the binding result is recorded as “no binding”.

For the molecule B4, the binding entry is on record as “no binding”.

B5: the binding result is “no binding”.

Consider B6, for which the binding result was “no binding”.

B7: the binding result is “no binding”.

Take B8: the binding entry is “binds”.

Another assay deals with PEX16 (UniProt Q9Y5Y5). Described as above.
On to B1, for which the binding result is listed as “binds”.

Consider B2, for which the binding entry is on record as “no binding”.

On to B3, for which the binding entry is listed as “no binding”.

As to B4, the binding entry is listed as “no binding”.

For B5, the binding entry is reported as “no binding”.

For B6, the binding result was “no binding”.

Take B7: the binding result is recorded as “no binding”.

Take B8: the binding entry is “no binding”.

The next assay addresses T3, peroxin PEX6. The assay is described as above.
B1: the binding entry is recorded as “binds”.

For the molecule B2, the binding result is listed as “no binding”.

As for B3, the binding entry is on record as “no binding”.

Take B4: the binding result is given as “no binding”.

Turning to B5, the binding entry is listed as “no binding”.

Consider B6, for which the binding result is on record as “no binding”.

B7: the binding result was “no binding”.

As for B8, the binding result is reported as “binds”.
